Test results reported in paper PMC8847735.
These are yes or no findings as the source states them, for the method shown. For part of these data: Binding seen in cells or lysates may run through a third protein. Some entries that bind do so weakly or less than the wild type. For part of these data: Sequences can lack the tags named with a protein. Each block holds one molecule with its values, some of them ahead of it.

Protein sequences, listed by entry. Tags and fused reporters are not part of them. Lines headed by an entry give the natural chain unless they say otherwise; changes in a name come on top.
UniProt P40763: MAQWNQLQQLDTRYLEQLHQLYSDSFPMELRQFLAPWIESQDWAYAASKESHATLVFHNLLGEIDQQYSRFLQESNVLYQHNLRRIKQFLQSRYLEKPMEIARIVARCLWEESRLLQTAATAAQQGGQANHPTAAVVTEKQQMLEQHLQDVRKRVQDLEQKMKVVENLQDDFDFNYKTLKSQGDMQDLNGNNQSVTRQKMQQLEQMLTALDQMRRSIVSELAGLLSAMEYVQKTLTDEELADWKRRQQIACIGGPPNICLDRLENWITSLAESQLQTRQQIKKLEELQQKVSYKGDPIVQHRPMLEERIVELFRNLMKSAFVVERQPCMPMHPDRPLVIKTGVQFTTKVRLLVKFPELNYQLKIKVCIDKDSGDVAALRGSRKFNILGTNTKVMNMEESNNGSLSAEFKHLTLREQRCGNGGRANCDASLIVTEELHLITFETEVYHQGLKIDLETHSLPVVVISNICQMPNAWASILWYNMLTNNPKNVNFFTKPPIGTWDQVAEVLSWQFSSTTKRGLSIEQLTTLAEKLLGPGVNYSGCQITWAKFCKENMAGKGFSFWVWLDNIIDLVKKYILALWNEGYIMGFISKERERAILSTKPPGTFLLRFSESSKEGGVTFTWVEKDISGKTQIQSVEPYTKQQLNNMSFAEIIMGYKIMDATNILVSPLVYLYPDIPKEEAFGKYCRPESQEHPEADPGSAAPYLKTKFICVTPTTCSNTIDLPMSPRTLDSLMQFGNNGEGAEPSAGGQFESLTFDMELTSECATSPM

What was measured:
[1] = molecular target: T1, Flag-tagged Pdia4 (UniProt P13667); test: co-IP; Jurkat cells co-transfected with His-tagged Stat3 or its mutants and Flag-tagged Pdia4; αFlag immunoprecipitation of lysates; immunoblot with αHis and αFlag
T1 sequence: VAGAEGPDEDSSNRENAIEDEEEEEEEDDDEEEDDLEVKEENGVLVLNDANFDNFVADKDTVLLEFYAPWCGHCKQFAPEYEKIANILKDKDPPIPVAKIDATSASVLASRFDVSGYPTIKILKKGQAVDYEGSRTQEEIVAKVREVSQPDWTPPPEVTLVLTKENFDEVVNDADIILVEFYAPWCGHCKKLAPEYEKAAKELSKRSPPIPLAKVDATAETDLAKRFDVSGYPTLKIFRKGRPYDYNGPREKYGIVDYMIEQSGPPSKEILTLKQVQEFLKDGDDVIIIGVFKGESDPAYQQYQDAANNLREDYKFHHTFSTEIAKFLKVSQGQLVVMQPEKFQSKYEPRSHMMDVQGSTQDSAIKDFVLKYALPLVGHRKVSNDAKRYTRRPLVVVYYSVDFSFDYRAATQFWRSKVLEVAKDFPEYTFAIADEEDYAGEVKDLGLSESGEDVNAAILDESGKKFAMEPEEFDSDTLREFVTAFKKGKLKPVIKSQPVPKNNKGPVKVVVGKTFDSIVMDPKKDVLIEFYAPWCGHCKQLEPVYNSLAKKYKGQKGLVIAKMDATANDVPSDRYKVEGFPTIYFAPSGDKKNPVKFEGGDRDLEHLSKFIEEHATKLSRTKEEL

[2] = molecular target: T2, Protein disulfide isomerase a4 (Pdia4) in Jurkat total lysate (UniProt P13667); test: co-IP; total lysates of Jurkat cells incubated with αPdia4 or isotype antibodies plus protein G beads; immunoblot with αPdia4 and αStat3
T2 sequence: T1 sequence

[3] = molecular target: His-Stat3 (recombinant protein containing a His-tagged Stat3) (UniProt P40763); test: co-IP; recombinant His-tagged Stat3 incubated in vitro with His-tagged Pdia4 or His-tagged VP3; αStat3 precipitation; immunoblot with αHis; both purified
[4] = molecular target: His-tagged Stat3, full length (pHis-Stat3) (UniProt P40763); test: pull-down; Jurkat cells co-transfected with Flag-tagged Pdia4 or its mutants and His-tagged Stat3; precipitation of lysates with nickel beads (called co-immunoprecipitation with nickel beads); immunoblot with αFlag and αHis

binding [1]: binds
Molecule: His-tagged Stat3, full length (pHis-Stat3) (from UniProt P40763 1-770)

binding [1]: binds
Molecule: His-tagged Stat3^1-143 (N-terminal domain of Stat3) (from UniProt P40763 1-143) (domain or fragment)

binding [2]: binds
Molecule: Signal transducer and activator of transcription 3 (Stat3) in Jurkat total lysate (from UniProt P40763 1-770)

binding [3]: binds
B1: His-Pdia4 (His-tagged Pdia4, recombinant) (protein, UniProt P13667 21-645)
chain: T1 sequence

binding [4]: binds
B2: Flag-tagged Pdia4 (protein, UniProt P13667 21-645)
chain: T1 sequence

binding [4]: no binding
B3: Flag-tagged Pdia4^280-646 (domain or fragment, UniProt P13667 280-645)
chain: IEQSGPPSKEILTLKQVQEFLKDGDDVIIIGVFKGESDPAYQQYQDAANNLREDYKFHHTFSTEIAKFLKVSQGQLVVMQPEKFQSKYEPRSHMMDVQGSTQDSAIKDFVLKYALPLVGHRKVSNDAKRYTRRPLVVVYYSVDFSFDYRAATQFWRSKVLEVAKDFPEYTFAIADEEDYAGEVKDLGLSESGEDVNAAILDESGKKFAMEPEEFDSDTLREFVTAFKKGKLKPVIKSQPVPKNNKGPVKVVVGKTFDSIVMDPKKDVLIEFYAPWCGHCKQLEPVYNSLAKKYKGQKGLVIAKMDATANDVPSDRYKVEGFPTIYFAPSGDKKNPVKFEGGDRDLEHLSKFIEEHATKLSRTKEEL
